# Test results reported in the supplement of paper PMC8728848.
# Some of the results follow.
# B1: Dectin-1 (Mus musculus), Q6QLQ4 (protein)
# chain: GHNSGRNPEEKDNFLSRNKENHKPTESSLDEKVAPSKASQTTGGFSQPCLPNWIMHGKSCYLFSFSGNSWYGSKRHCSQLGAHLLKIDNSKEFEFIESQTSSHRINAFWIGLSRNQSEGPWFWEDGSAFFPNSFQVRNTAPQESLLHNCVWIHGSEVYNQICNTSSYSICEKEL
# Key:
# Test in all cases: glycan array binding signal (z-score within array); higher = stronger binding
# Details in all cases: glycan notation: IUPAC condensed, linker removed
# [1] = target: Gal6S(b1-3)[Fuc(a1-4)]GlcNAc(b1-3)Gal(b1-4)Glc
# Method in brief: (§1)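 The binding signal is a Z-score computed within each array and averaged over linkers. Arrays of the same protein sequence at different concentrations or buffers were also averaged together. Data originate from 3228 arrays in the Consortium for Functional Glycomics database, kept only where the protein sequence was available.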
# GalNAc(a1-3)Gal(b1-4)Glc = target: GalNAc(a1-3)Gal(b1-4)Glc
# Method in brief: as §1
# GalNAc(a1-3)GalNAc = target: GalNAc(a1-3)GalNAc
# Method in brief: as §1
# GalNAc(b1-4)Gal(b1-4)Glc = target: GalNAc(b1-4)Gal(b1-4)Glc
# Method in brief: as §1
# [2] = target: GalNAc(b1-4)Gal3S(b1-4)Glc
# Method in brief: as §1
# [3] = target: GalNAc3S(b1-4)Gal3S(b1-4)Glc
# Method in brief: as §1
# Glc(a1-2)Glc = target: Glc(a1-2)Glc
# Method in brief: as §1
# Glc(a1-2)Glc(a1-2)Glc = target: Glc(a1-2)Glc(a1-2)Glc
# Method in brief: as §1
# [4] = target: Glc(a1-2)Glc(a1-2)Glc(a1-2)Glc
# Method in brief: as §1
# [5] = target: Glc(a1-2)Glc(a1-2)Glc(a1-2)Glc(a1-2)Glc
# Method in brief: as §1
# [6] = target: Glc(a1-2)Glc(a1-2)Glc(a1-2)Glc(a1-2)Glc(a1-2)Glc
# Method in brief: as §1
# [7] = target: Glc(a1-2)Glc(a1-2)Glc(a1-2)Glc(a1-2)Glc(a1-2)Glc(a1-2)Glc
# Method in brief: as §1
# [8] = target: Glc(a1-2)Glc(a1-2)Glc(a1-2)Glc(a1-2)Glc(a1-2)Glc(a1-2)Glc(a1-2)Glc
# Method in brief: as §1
# [9] = target: Glc(a1-2)Glc(a1-2)Glc(a1-2)Glc(a1-2)Glc(a1-2)Glc(a1-2)Glc(a1-2)Glc(a1-2)Glc
# Method in brief: as §1
# Glc(a1-3)Glc = target: Glc(a1-3)Glc
# Method in brief: as §1
# Glc(a1-3)Glc(a1-3)Glc = target: Glc(a1-3)Glc(a1-3)Glc
# Method in brief: as §1
# [10] = target: Glc(a1-3)Glc(a1-3)Glc(a1-3)Glc
# Method in brief: as §1
# [11] = target: Glc(a1-3)Glc(a1-3)Glc(a1-3)Glc(a1-3)Glc
# Method in brief: as §1
# [12] = target: Glc(a1-3)Glc(a1-3)Glc(a1-3)Glc(a1-3)Glc(a1-3)Glc
# Method in brief: as §1
# [13] = target: Glc(a1-3)Glc(a1-3)Glc(a1-3)Glc(a1-3)Glc(a1-3)Glc(a1-3)Glc
# Method in brief: as §1
# [14] = target: Glc(a1-3)Glc(a1-3)Glc(a1-3)Glc(a1-3)Glc(a1-3)Glc(a1-3)Glc(a1-3)Glc
# Method in brief: as §1
# [15] = target: Glc(a1-3)Glc(a1-3)Glc(a1-3)Glc(a1-3)Glc(a1-3)Glc(a1-3)Glc(a1-3)Glc(a1-3)Glc
# Method in brief: as §1
# [16] = target: Glc(a1-3)Glc(a1-3)Glc(a1-3)Glc(a1-3)Glc(a1-3)Glc(a1-3)Glc(a1-3)Glc(a1-3)Glc(a1-3)Glc
# Method in brief: as §1
# [17] = target: Glc(a1-3)Glc(a1-3)Glc(a1-3)Glc(a1-3)Glc(a1-3)Glc(a1-3)Glc(a1-3)Glc(a1-3)Glc(a1-3)Glc(a1-3)Glc
# Method in brief: as §1
# [18] = target: Glc(a1-3)Glc(a1-3)Glc(a1-3)Glc(a1-3)Glc(a1-3)Glc(a1-3)Glc(a1-3)Glc(a1-3)Glc(a1-3)Glc(a1-3)Glc(a1-3)Glc
# Method in brief: as §1
# [19] = target: Glc(a1-3)Glc(a1-3)Glc(a1-3)Glc(a1-3)Glc(a1-3)Glc(a1-3)Glc(a1-3)Glc(a1-3)Glc(a1-3)Glc(a1-3)Glc(a1-3)Glc(a1-3)Glc
# Method in brief: as §1
# [20] = target: Glc(a1-3)Man(a1-2)Man(a1-2)Man(a1-3)[Man(a1-2)Man(a1-3)[Man(a1-2)Man(a1-6)]Man(a1-6)]Man(b1-4)GlcNAc(b1-4)GlcNAc
# Method in brief: as §1
# Glc(a1-4)Glc = target: Glc(a1-4)Glc
# Method in brief: as §1
# Glc(a1-4)Glc(a1-4)Glc = target: Glc(a1-4)Glc(a1-4)Glc
# Method in brief: as §1
# [21] = target: Glc(a1-4)Glc(a1-4)Glc(a1-4)Glc
# Method in brief: as §1
# [22] = target: Glc(a1-4)Glc(a1-4)Glc(a1-4)Glc(a1-4)Glc
# Method in brief: as §1
# [23] = target: Glc(a1-4)Glc(a1-4)Glc(a1-4)Glc(a1-4)Glc(a1-4)Glc
# Method in brief: as §1
# [24] = target: Glc(a1-4)Glc(a1-4)Glc(a1-4)Glc(a1-4)Glc(a1-4)Glc(a1-4)Glc
# Method in brief: as §1
# [25] = target: Glc(a1-4)Glc(a1-4)Glc(a1-4)Glc(a1-4)Glc(a1-4)Glc(a1-4)Glc(a1-4)Glc
# Method in brief: as §1
# [26] = target: Glc(a1-4)Glc(a1-4)Glc(a1-4)Glc(a1-4)Glc(a1-4)Glc(a1-4)Glc(a1-4)Glc(a1-4)Glc
# Method in brief: as §1
# [27] = target: Glc(a1-4)Glc(a1-4)Glc(a1-4)Glc(a1-4)Glc(a1-4)Glc(a1-4)Glc(a1-4)Glc(a1-4)Glc(a1-4)Glc
# Method in brief: as §1
# [28] = target: Glc(a1-4)Glc(a1-4)Glc(a1-4)Glc(a1-4)Glc(a1-4)Glc(a1-4)Glc(a1-4)Glc(a1-4)Glc(a1-4)Glc(a1-4)Glc
# Method in brief: as §1
# [29] = target: Glc(a1-4)Glc(a1-4)Glc(a1-4)Glc(a1-4)Glc(a1-4)Glc(a1-4)Glc(a1-4)Glc(a1-4)Glc(a1-4)Glc(a1-4)Glc(a1-4)Glc
# Method in brief: as §1
# [30] = target: Glc(a1-4)Glc(a1-4)Glc(a1-4)Glc(a1-4)Glc(a1-4)Glc(a1-4)Glc(a1-4)Glc(a1-4)Glc(a1-4)Glc(a1-4)Glc(a1-4)Glc(a1-4)Glc
# Method in brief: as §1
# Glc(a1-4)Glc(a1-6)Glc = target: Glc(a1-4)Glc(a1-6)Glc
# Method in brief: as §1
# Glc(a1-6)Glc = target: Glc(a1-6)Glc
# Method in brief: as §1
# Glc(a1-6)Glc(a1-4)Glc = target: Glc(a1-6)Glc(a1-4)Glc
# Method in brief: as §1
# [31] = target: Glc(a1-6)Glc(a1-4)Glc(a1-4)Glc
# Method in brief: as §1
# [32] = target: Glc(a1-6)Glc(a1-4)Glc(a1-4)Glc(a1-6)Glc(a1-4)Glc(a1-4)Glc
# Method in brief: as §1
# Glc(a1-6)Glc(a1-6)Glc = target: Glc(a1-6)Glc(a1-6)Glc
# Method in brief: as §1
binder,measurement,setting,value
B1,glycan array binding signal (z-score),[1],0.021
same,glycan array binding signal (z-score),GalNAc(a1-3)Gal(b1-4)Glc,-0.091
same,glycan array binding signal (z-score),GalNAc(a1-3)GalNAc,-0.089
same,glycan array binding signal (z-score),GalNAc(b1-4)Gal(b1-4)Glc,0.051
same,glycan array binding signal (z-score),[2],-0.074
same,glycan array binding signal (z-score),[3],-0.082
same,glycan array binding signal (z-score),Glc(a1-2)Glc,-0.093
same,glycan array binding signal (z-score),Glc(a1-2)Glc(a1-2)Glc,-0.135
same,glycan array binding signal (z-score),[4],-0.135
same,glycan array binding signal (z-score),[5],-0.135
same,glycan array binding signal (z-score),[6],-0.135
same,glycan array binding signal (z-score),[7],-0.135
same,glycan array binding signal (z-score),[8],-0.135
same,glycan array binding signal (z-score),[9],-0.135
same,glycan array binding signal (z-score),Glc(a1-3)Glc,-0.135
same,glycan array binding signal (z-score),Glc(a1-3)Glc(a1-3)Glc,-0.135
same,glycan array binding signal (z-score),[10],-0.135
same,glycan array binding signal (z-score),[11],-0.135
same,glycan array binding signal (z-score),[12],-0.135
same,glycan array binding signal (z-score),[13],-0.135
same,glycan array binding signal (z-score),[14],-0.135
same,glycan array binding signal (z-score),[15],-0.135
same,glycan array binding signal (z-score),[16],-0.135
same,glycan array binding signal (z-score),[17],-0.135
same,glycan array binding signal (z-score),[18],-0.135
same,glycan array binding signal (z-score),[19],-0.135
same,glycan array binding signal (z-score),[20],-0.04
same,glycan array binding signal (z-score),Glc(a1-4)Glc,-0.098
same,glycan array binding signal (z-score),Glc(a1-4)Glc(a1-4)Glc,-0.111
same,glycan array binding signal (z-score),[21],-0.113
same,glycan array binding signal (z-score),[22],-0.102
same,glycan array binding signal (z-score),[23],-0.135
same,glycan array binding signal (z-score),[24],-0.135
same,glycan array binding signal (z-score),[25],-0.135
same,glycan array binding signal (z-score),[26],-0.135
same,glycan array binding signal (z-score),[27],-0.135
same,glycan array binding signal (z-score),[28],-0.135
same,glycan array binding signal (z-score),[29],-0.135
same,glycan array binding signal (z-score),[30],-0.135
same,glycan array binding signal (z-score),Glc(a1-4)Glc(a1-6)Glc,0.413
same,glycan array binding signal (z-score),Glc(a1-6)Glc,-0.095
same,glycan array binding signal (z-score),Glc(a1-6)Glc(a1-4)Glc,-0.135
same,glycan array binding signal (z-score),[31],-0.086
same,glycan array binding signal (z-score),[32],-0.135
same,glycan array binding signal (z-score),Glc(a1-6)Glc(a1-6)Glc,-0.113
